Among all 150,000 compounds or so, about 540 (0.36%) showed an effect of 50% or more. The list shows a part of the results.
Each compound was assayed on Plasmodium falciparum (assay: Primary screen in NF54 nanoGlo assay, in single point, at 2uM, 72h; a lower Z score goes with more inhibition). Conditions: timepoint 72 hour.
Format: functional, Erythrocyte
In the case of `O=C1CN(C(=O)Cn2c(-c3ccccc3)nn(-c3ccc(Cl)cc3)c2=O)CCN1`, the “% Inhibition” value was -6% and the Z score was 0.83.
With `CC(C)CN1CCC([C@H]2CCN(c3ccnc(N)n3)C2)CC1` the “% Inhibition” value was -1% and the Z score was 0.18.
`COCCNc1cncc(-c2ccsc2)c1` was tested, and the “% Inhibition” value was -4% and the Z score was 0.6.
With `COc1ccccc1N1CCN(C(=O)c2cnc(-c3ccc4c(c3)OCO4)nc2Nc2cccc(F)c2)CC1` the “% Inhibition” value was -13% and the Z score was 1.25.
For `CCCc1ccc([C@@]2(C)NC(=O)N(CC(=O)N3CCc4cc(OC)c(OC)cc4C3)C2=O)cc1`, the “% Inhibition” value was -5% and the Z score was 0.44.
In the case of `O=C1[C@@H](n2ccnn2)CCN1c1ccccc1Cl`, the “% Inhibition” value was 11% and the Z score was -1.42.
For `O=C(NCCN1CCCC1)Nc1cccc(-c2cscn2)c1`, the “% Inhibition” value was 12% and the Z score was -1.75.
With `CC(C)Oc1ccc(C(=O)N2Cc3cncnc3C2)nc1` the “% Inhibition” value was 0% and the Z score was 0.05.
`COc1ccc2c(c1)CCCN(C(=O)[C@H]1CCc3nc(C)nn3C1)C2` was tested, and the “% Inhibition” value was -7% and the Z score was 0.78.
`Cc1ccnc(NC(=O)c2cc(N3CCCC3)ncn2)c1` was tested, and the “% Inhibition” value was -4% and the Z score was 0.71.
In the case of `Cc1c(-c2nnc(C(=O)NCCc3ccc(Cl)cc3)o2)oc2ccccc12`, the “% Inhibition” value was -19% and the Z score was 2.93.
For `Cc1cc(CN2CCN(C(=O)NCC3CCC(C)(C)CC3)CC2)on1`, the “% Inhibition” value was -12% and the Z score was 1.69.
`C[C@@H]1NC(=O)COc2cc(O)cc(c2)C(=O)NCCCN(C(=O)C2C(C)(C)C2(C)C)CCCCN(C)C1=O` was tested, and the “% Inhibition” value was 7% and the Z score was -1.
`CCc1c(C(=O)N(C)Cc2ccccc2)c(=O)cc(C)n1C[C@H]1CCCN1CC` was tested, and the “% Inhibition” value was -10% and the Z score was 1.91.
In the case of `COCC(C)NC(=O)c1cc2n(n1)[C@H](C(F)(F)F)C[C@H](c1ccco1)N2` (stereo partly drawn), the “% Inhibition” value was 0% and the Z score was 0.06.
`C#CCNC(=O)c1c(-c2ccc(F)cc2)[nH]n(C(C)C)c1=O` was tested, and the “% Inhibition” value was -20% and the Z score was 2.04.
In the case of `COc1ccc2nc(N3CC(C(=O)Nc4cccc5nc(C)ccc45)C3)sc2c1`, the “% Inhibition” value was 5% and the Z score was -0.79.
`C[C@]1(CNC(=O)CN2CCOCC2)CCCN1Cc1ccccc1` was tested, and the “% Inhibition” value was -2% and the Z score was 0.44.
With `O=C(Cn1ncc2c([nH]c3ccccc32)c1=O)N1CCC(Cc2ccccc2)CC1` the “% Inhibition” value was -4% and the Z score was 0.58.
For `C[C@@H](Cc1cccc(F)c1)C(=O)NC1CCS(=O)(=O)CC1`, the “% Inhibition” value was -19% and the Z score was 3.36.
`Cc1noc([C@H](C)NC(=O)c2ccncc2C)n1` was tested, and the “% Inhibition” value was -15% and the Z score was 1.57.
In the case of `C[C@@H]1CN(c2nnc(-c3n[nH]c4c3CCCC4)n2C)C[C@H](C)O1`, the “% Inhibition” value was -14% and the Z score was 2.01.
For `Cc1c(Cl)cnc(NC(=O)COC(=O)[C@H](C)NC(=O)c2ccccc2)c1Cl`, the “% Inhibition” value was -3% and the Z score was 0.51.
`O=c1c(Cc2ccccc2)c(O)nc2ccccn12` was tested, and the “% Inhibition” value was 5% and the Z score was -0.59.
With `CN(C)C(=O)c1cncc(N[C@@H](CC(C)(C)C)c2cccnc2)n1` the “% Inhibition” value was -20% and the Z score was 2.56.
In the case of `CN(CCc1ccccn1)c1ccnc(C(=O)N2CCOCC2)c1`, the “% Inhibition” value was 0% and the Z score was -0.05.
For `O=C1N(CC2CC2)CCC[C@@]12CCN(Cc1ccc(Cl)s1)C2`, the “% Inhibition” value was 1% and the Z score was -0.18.
`CC(C)CNC(=O)[C@@H]1C[C@H](COc2cccc(C(F)(F)F)c2)CN(Cc2ccncc2)C1` was tested, and the “% Inhibition” value was 0% and the Z score was -0.06.
`CC(C)[C@H]1CCCN(C(=O)CCC(C)(C)C)CC1` was tested, and the “% Inhibition” value was 1% and the Z score was -0.13.
`COc1ccc2nc(CN3CCC[C@H](c4nccs4)C3)sc2c1` was tested, and the “% Inhibition” value was -11% and the Z score was 1.1.
`CC(=O)N1CCC[C@H]1C(=O)Nc1cccc2oc(C(F)(F)F)nc12` was tested, and the “% Inhibition” value was -9% and the Z score was 1.2.
For `COC(=O)[C@@H]1CN(S(=O)(=O)C2CC2)C[C@H]1c1ccccc1`, the “% Inhibition” value was -9% and the Z score was 1.
For `Cc1ccc(NC(=O)N2CCN(c3nc(-c4ccc(C(F)(F)F)cc4)nc(C)c3C(C)C)CC2)c(C)c1`, the “% Inhibition” value was -7% and the Z score was 0.69.
For `O=C(NCCN1c2ccccc2N(C2CC2)S1(=O)=O)c1ccco1`, the “% Inhibition” value was -20% and the Z score was 3.88.
`COCCc1nncn1C1CCN(C(=O)c2cc(C)cc(C)c2)CC1` was tested, and the “% Inhibition” value was -8% and the Z score was 1.35.
`Cc1ccn(CC(=O)N2C[C@@H]3CN(C(=O)c4ccccc4)C[C@]3(C(=O)N(C)C)C2)n1` was tested, and the “% Inhibition” value was -23% and the Z score was 3.12.
For `Cc1nc2ccccc2c(=O)n1NC(=O)c1c(O)nc2ccccc2c1O`, the “% Inhibition” value was 4% and the Z score was -0.46.
With `C[C@H]1CCCN(C(=O)C2=Cc3ccccc3OC2)C1` the “% Inhibition” value was -3% and the Z score was 0.45.
`COCc1noc(CNC(=O)COc2cccnc2)n1` was tested, and the “% Inhibition” value was -6% and the Z score was 1.32.
For `CC(=O)N1CCCN(C(=O)N[C@@H](C)c2nc(-c3ccccn3)no2)CC1`, the “% Inhibition” value was -6% and the Z score was 0.95.
For `Cc1ccc(-c2nccn2C[C@@]2(C)CCCO2)o1`, the “% Inhibition” value was 4% and the Z score was -0.72.
With `O=C(NC1(c2cccs2)CCCC1)c1ccccc1Cl` the “% Inhibition” value was 8% and the Z score was -1.1.
With `Cc1cc(NC(=O)CCN2CC(C)CC(C)C2)no1` (stereo not drawn) the “% Inhibition” value was -2% and the Z score was 0.21.
In the case of `C[C@H]1CCN(CC(=O)NCCc2cccc3cccnc23)C1`, the “% Inhibition” value was -9% and the Z score was 1.8.
`CCCS(=O)(=O)N1CC[C@H](c2noc(-c3ccncc3)n2)C1` was tested, and the “% Inhibition” value was -2% and the Z score was 0.3.
For `CCCN(C(=O)c1cc(C)c(CC)o1)c1cccnc1`, the “% Inhibition” value was -1% and the Z score was 0.12.
`Nc1ccc(S(=O)(=O)N2CC3(CCCO3)C2C2CC2)cc1` (stereo not drawn) was tested, and the “% Inhibition” value was -10% and the Z score was 1.
For `O=C(NC1CCCCC1)NC1CCC(O)CC1` (stereo not drawn), the “% Inhibition” value was -6% and the Z score was 0.6.
With `O=C(O)C[C@H]1CCCN1C(=O)c1cc2c(s1)CCC2` the “% Inhibition” value was -1% and the Z score was 0.27.
`CC(C)OCCCC(=O)N1CCC[C@H]1c1ccncc1` was tested, and the “% Inhibition” value was -15% and the Z score was 2.77.
For `CC1(C)CN(C(=O)[C@@H]2CCCN2C(=O)c2ccccc2O)CC2(CCCC2)O1`, the “% Inhibition” value was -8% and the Z score was 0.91.
With `COCc1nc(CCNC(=O)[C@H]2CCCN(S(=O)(=O)N3CCCC3)C2)no1` the “% Inhibition” value was -1% and the Z score was 0.12.
In the case of `Cc1cc(C(=O)N2CCC(C)(c3noc(-c4ccncc4)n3)CC2)c(C)n1Cc1ccc(F)cc1`, the “% Inhibition” value was -19% and the Z score was 2.52.
`COc1cccc(NC(=O)C(F)(F)F)c1` was tested, and the “% Inhibition” value was -4% and the Z score was 0.51.
In the case of `Nc1ncccc1CN1CCC(Oc2ccc3ccccc3c2)(C(=O)O)CC1`, the “% Inhibition” value was -5% and the Z score was 0.61.
With `COc1c(C)cc(-c2cncc(C(=O)N3CCN(C)CC3)n2)cc1C` the “% Inhibition” value was -5% and the Z score was 0.92.
`N[C@@H](c1ccccc1)c1ccc2c(c1)CCCO2` was tested, and the “% Inhibition” value was -7% and the Z score was 1.32.
`Cc1nc(N2CCC[C@H](C(=O)N3CCCCCC3)C2)c2cc[nH]c2n1` was tested, and the “% Inhibition” value was -2% and the Z score was 0.28.
With `CN1C(=O)N(c2cc(Cl)cc(Cl)c2)C(=O)[C@]12CN(c1ccc(C(=O)O)cn1)C[C@H]2c1ccc(C#N)cc1` the “% Inhibition” value was 35% and the Z score was -1.5.
With `CCOCC1CC2(CC(C)(c3csc(N)n3)OC2=O)C(=O)O1` (stereo not drawn) the “% Inhibition” value was -17% and the Z score was 1.54.
`O=C(NC1CC1)c1cccc(NC(=O)[C@H]2CCS(=O)(=O)C2)c1` was tested, and the “% Inhibition” value was 14% and the Z score was -1.65.
With `CON(C)C(=O)c1cccc(S(C)(=O)=O)c1` the “% Inhibition” value was 3% and the Z score was -0.32.
With `Cc1cc(NC(=O)c2nn(C)c(=O)c3ccccc23)no1` the “% Inhibition” value was -10% and the Z score was 1.92.
With `Fc1ccc(-n2nc(Cn3ccnn3)c3c2CCC3)cc1` the “% Inhibition” value was -6% and the Z score was 1.21.
With `O=C(NC1CCCCC1)C1=NCCCN1` the “% Inhibition” value was 0% and the Z score was 0.04.
For `O=C1c2ccccc2C(=O)N1C[C@H]1CCCN1c1ccccc1`, the “% Inhibition” value was -18% and the Z score was 2.09.
In the case of `C[C@H](CC(=O)Nc1ncc(Cl)cc1Cl)CC(C)(C)C`, the “% Inhibition” value was -4% and the Z score was 0.51.
For `C[C@H]1Cc2ccc(CNS(=O)(=O)Cc3ccccc3)cc2N1C(=O)c1ccccc1`, the “% Inhibition” value was -2% and the Z score was 0.25.
With `COc1ccccc1CNC(=O)CC1=Nc2ccccc2S(=O)(=O)N1` the “% Inhibition” value was -13% and the Z score was 2.25.
`COCC(NC(C)c1nn(C)cc1O)c1ccccc1` (stereo not drawn) was tested, and the “% Inhibition” value was 0% and the Z score was 0.05.
In the case of `COC(=O)NCCC(=O)N[C@@H](C)c1cccc(Cl)c1Cl`, the “% Inhibition” value was 9% and the Z score was -1.29.
`C[C@@H](C(=O)Nc1ncccn1)N1CCN(c2cnccn2)CC1` was tested, and the “% Inhibition” value was -4% and the Z score was 0.46.
With `Cc1cnc(C)c(-c2cc(O)c3c(c2)CN(Cc2snnc2C)CCO3)n1` the “% Inhibition” value was -13% and the Z score was 1.94.
With `O=C(c1nccc2ccccc12)N1CC(Cn2cncn2)C1` the “% Inhibition” value was -9% and the Z score was 1.17.
`CN(C)C(N)=NCc1cccc(C(F)F)c1` was tested, and the “% Inhibition” value was 6% and the Z score was -1.15.
In the case of `O=C(NCCN(CCOCCO)C(=O)OCC1CC1)OCC1CC1`, the “% Inhibition” value was -5% and the Z score was 0.92.
With `O=C(NCCc1cn[nH]c1)[C@@H]1CCCN1C(=O)C1CCCCC1` the “% Inhibition” value was -18% and the Z score was 2.62.
In the case of `CC(C)(CO)CCNC(=O)[C@@H]1C[C@H]1c1ccc(Cl)c(Cl)c1`, the “% Inhibition” value was -9% and the Z score was 1.16.
With `COCCN(Cc1ccc(C(O)(c2cccc(F)c2)c2cccc(F)c2)o1)Cc1ccccc1C` the “% Inhibition” value was -6% and the Z score was 0.73.
In the case of `CC(=O)NCc1ccc(C(=O)N2CCCC[C@@H]2Cn2cc(C)cn2)o1`, the “% Inhibition” value was 6% and the Z score was -0.81.
In the case of `CCS(=O)(=O)N1CCN(C(=O)Nc2ccc3c(c2)CCC3)CC1`, the “% Inhibition” value was -10% and the Z score was 0.89.
`O=C([C@@H]1CNCCN1C(=O)c1csc(-c2cccs2)n1)N1CCCC1` was tested, and the “% Inhibition” value was -13% and the Z score was 1.59.
For `CCOc1ccc(S(=O)(=O)Cc2c(C)noc2C)cc1`, the “% Inhibition” value was -4% and the Z score was 0.69.
`O=C(NC[C@H](O)c1c(Cl)cccc1Cl)c1cnc[nH]1` was tested, and the “% Inhibition” value was -5% and the Z score was 1.03.

— ChEMBL document CHEMBL4888484, “Replenishing the malaria drug discovery pipeline: Screening and hit evaluation of the MMV Hit Generation Library 1 (HGL1) against asexual blood stage Plasmodium falciparum ,using a nano luciferase reporter read-out” (2022)
